Assay results from PubChem BioAssay AID1671194 (National Center for Advancing Translational Sciences (NCATS), 2021).
Out of some 140,000 compounds screened, about 240 (0.17%) were called active. The inconclusive results got no clear call from the source; some entries with a clear call stand among them for comparison. Calls come from the whole dose curve; as a rule, active = well fitted inhibition curve with a large enough effect; inconclusive = small, poorly fitted or top-dose-only effect; inactive = no such curve, though single readings can be large or run the other way. Potencies of inconclusive entries are doubtful fits and often do not repeat.

Assay: Primary qHTS assay for inhibitors of alpha-synuclein gene (SNCA) expression; note: nearly all actives have a fitted effect of over 45% in size;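 for activity change, negative = inhibition: plate controls were DMSO cells for no effect and cell-free wells for full effect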
Settings: HEK-293 SNCA-luciferase knock-in, luminescence, 24 h; activity change, negative = inhibition: at 57.2 µM (top of the series) unless noted
Potency is the fitted concentration of half-maximal effect; tags give direction and shape of the fitted curve.

Row | Structure (SMILES) | Potency | activity change, negative = inhibition
1 | CCN1C(C(=O)c2ccccc2)=C(OC(=O)COc2ccccc2)c2ccccc2S1(=O)=O | inconclusive: 10 µM [inhibitor, partial curve, poor fit] | –
2 | CCOC(=O)c1scc(-c2ccc(C)cc2)c1S(=O)(=O)Nc1cccc(CC)c1 | inconclusive: 15.8 µM [inhibitor, partial curve, poor fit] | –
3 | COc1cccc2sc(N3CCN(C(=O)CS(=O)(=O)c4ccc(Cl)cc4)CC3)nc12 | inconclusive: 20 µM [inhibitor, single point] | –
4 | CC(C)N(C(=O)c1cc2c(Cl)nc3ccccc3c2s1)C1CCCCC1 | inconclusive: 0.891 µM [inhibitor, full curve, poor fit] | –
5 | Cc1cccc(CS(=O)(=O)c2ncc(Cl)c(C(=O)Nc3nc4ccc(F)cc4s3)n2)c1 | inconclusive: 39.8 µM [inhibitor, single point] | –
6 | CC(C)Nc1ncc(C(=O)NC2CC(=O)N(Cc3cccc(F)c3)C2)cn1 (configuration not stated) | inconclusive: 10 µM [inhibitor, partial curve, poor fit] | –
7 | Cn1nc2n(c1=O)CCN(C(=O)CCCc1c[nH]c3ccccc13)CC2 | inconclusive: 1 µM [inhibitor, full curve] | –
8 | O=C(N1CC(N(Cc2ccncc2)CC2CC2)C1)C1(c2ccccc2)CC1 | inconclusive: 8.91 µM [inhibitor, single point] | –
9 | CC(C)NC(=O)N1Cc2[nH]cnc2C[C@H]1c1nc(-c2ccc3c(c2)OCO3)no1 | inconclusive: 14.1 µM [inhibitor, full curve, poor fit] | –
10 | COc1ccc(-c2noc(Cn3c(=O)c4ccccc4n(CC(=O)Nc4cccc(C(F)(F)F)c4)c3=O)n2)cc1 | inconclusive: 28.2 µM [inhibitor, single point] | –
11 | CC(C)(C)c1cnc([C@@H]2COCCN2CC2CC2)[nH]1 | inconclusive: 3.55 µM [inhibitor, full curve, poor fit] | –
12 | CCC1Oc2ccc(NC(=O)Cc3ccc(OC)cc3)cc2CN(Cc2ccc3c(c2)OCO3)C1=O (configuration not stated) | inconclusive: 39.8 µM [inhibitor, single point] | –
13 | CO[C@@H](C(=O)N1Cc2[nH]nc(NC(=O)c3ccc(N4CCN(C)CC4)cc3)c2C1)c1ccccc1 | inconclusive: 0.961 µM [inhibitor, full curve, poor fit] | –
14 | CCOc1ccc(N(CC)S(=O)(=O)N2CCCC(C(=O)NCc3ccc(Cl)cc3)C2)cc1 (configuration not stated) | inconclusive: 20 µM [inhibitor, single point] | –
15 | COCC(=O)N[C@@H]1CCC[C@@H](C(=O)NC2CC2)CC(=O)N(C)C1 | inconclusive: 11.2 µM [inhibitor, partial curve, poor fit] | –
16 | CC(C)NC(=O)N1CCOc2ccc(CCC(=O)NC3CCS(=O)(=O)C3)cc2C1 (configuration not stated) | inconclusive: 25.1 µM [inhibitor, partial curve, poor fit] | –
17 | COC(=O)[C@@H]1Cc2c([nH]c3ccccc23)[C@H]2C[C@@H](NCCCn3ccnc3)C[C@@H](c3ccccc3)N21 | inconclusive: 12.6 µM [inhibitor, partial curve, poor fit] | –
18 | COc1ccc(CCNC(=O)C2CCN(c3nc4ccccc4nc3C(F)(F)F)CC2)cc1OC | – | inactive: 8.44%
19 | COc1ccc(Nc2ccnc(N3CCC(C(=O)N4CCN(Cc5ccccc5)CC4)CC3)n2)cc1 | inconclusive: 39.8 µM [inhibitor, single point] | –

Row | Structure (SMILES) | Potency | activity change, negative = inhibition
20 | COc1ccc(C(=O)Oc2c(Sc3ccccc3)c(C)nn2-c2ccccc2)cc1OC | inconclusive: 25.1 µM [inhibitor, single point] | –
21 | Cc1ccccc1CN1C(=O)C(O)(CC(=O)c2ccccc2)c2cc(Cl)ccc21 (configuration not stated) | inconclusive: 31.6 µM [inhibitor, single point] | –
22 | Cc1ccc(-c2nnc3ccc(N(C)c4cccc(C)c4)nn23)nc1 | inconclusive: 5.01 µM [inhibitor, partial curve, poor fit] | –
23 | CNC(=O)[C@H]1C[C@H](Oc2ccccc2)CN1C(=O)NCc1ccccc1 | inconclusive: 39.8 µM [inhibitor, single point] | –
24 | N#Cc1ccccc1CN1CCNc2nc(CN3CCOCC3)n(Cc3ccccc3)c2C1=O | inconclusive: 39.8 µM [inhibitor, single point] | –
25 | COc1ccc(-c2cc(N3CCN(C(=O)c4c[nH]c5ccccc45)CC3)n[nH]2)cc1 | inconclusive: 39.8 µM [inhibitor, single point] | –
26 | CC(C)CN(C)C(=O)c1cc(-c2cnn(C(C)C)c2)nc2cc(F)ccc12 | inconclusive: 7.08 µM [inhibitor, full curve, poor fit] | –
27 | CC(C)C[C@@H]1N[C@H](C(=O)NCC2CC2)Cc2cn(Cc3cccnc3)c3cccc1c23 | inconclusive: 56.2 µM [inhibitor, single point] | –
28 | O=C(c1ccc(Cl)cc1)N1CCN(c2cc(-c3ccc(F)cc3)[nH]n2)CC1 | inconclusive: 39.8 µM [inhibitor, single point] | –
29 | CCC(=O)N1CCC2(CC1)CC(N1CCN(c3ccccn3)CC1)CCO2 (configuration not stated) | inconclusive: 2 µM [inhibitor, partial curve, poor fit] | –
30 | COc1ccc(CCNC(=O)c2nc3cccnc3n(CC(C)C)c2=O)cc1 | – | inactive: -17.8%
31 | CC(=O)c1cc(-c2ccccc2)n(CCC(=O)Nc2ccc(C(C)C)cc2)c1C | inconclusive: 17.8 µM [inhibitor, single point] | –
32 | O=C(NCc1ccc(F)cc1)C1=NOC2CN(C(=O)C3CC3)CC12 (configuration not stated) | inconclusive: 2 µM [inhibitor, full curve] | –
33 | Cc1noc(-c2cccc(OC3CN(C(=O)Nc4cccc(F)c4)C3)c2)n1 | – | inactive: 0.217%
34 | CCOc1ccccc1C1NC(=O)N(CC(=O)Nc2cccc(C(F)(F)F)c2)C2=C1C(=O)OC2 (configuration not stated) | inconclusive: 17.8 µM [inhibitor, single point] | –
35 | COc1cc(C(=O)NC2CCN(c3cc(-c4cccs4)[nH]n3)CC2)cc(OC)c1OC | inconclusive: 20 µM [inhibitor, single point] | –
36 | Cc1oc(-c2ccc(C(=O)NCc3ccc(F)cc3)cc2)nc1CS(=O)c1ccccc1 (configuration not stated) | inconclusive: 39.8 µM [inhibitor, single point] | –
37 | C[S+](=O)([O-])CCn1ncc2cc(OCC3CCN(c4ncccn4)CC3)ccc21 | inconclusive: 12.6 µM [inhibitor, single point] | –
38 | Cc1ccccc1CC(=O)Nc1ccc2ncnc(N3CCCCC3)c2c1 | inconclusive: 4.47 µM [inhibitor, single point] | –

Row | Structure (SMILES) | Potency | activity change, negative = inhibition
39 | Cc1nn(C)cc1C(=O)N1C[C@@H](CO)[C@H](c2ccncc2)C1 | inconclusive: 15.8 µM [inhibitor, single point] | –
40 | COc1ccc(Nc2ccnc(N3CCN(C(=O)c4ccc(C)cc4)CC3)n2)cc1 | – | inactive: -25.9%
41 | Cc1nn(-c2ccccc2)c(C)c1CC(=O)NC1CCCc2c1[nH]c1ccccc21 (configuration not stated) | inconclusive: 39.8 µM [inhibitor, single point] | –
42 | CCCC(=O)N1CCC(O)(c2ccccc2)[C@H](N2CCCC2)C1 (some centres not stated) | – | inactive: 3.36%
43 | CCCCCC(=O)Nc1nc2c(s1)C[C@@H]1[C@](C)(CO)[C@H](O)CC[C@@]1(C)[C@@H]2CC(=O)NCc1cc(F)cc(F)c1 | inconclusive: 7.94 µM [inhibitor, partial curve, poor fit] | –
44 | COc1ccc(C[C@H](NC(=O)C2=C[C@@H](NC(=O)c3cc(OC)ccc3Br)[C@@H](O)[C@H](O)C2)C(N)=O)cc1 | inconclusive: 1.78 µM [inhibitor, full curve, poor fit] | –
45 | CCCCc1cc(C[C@H]2CNCC[C@H]2CC(=O)N2CCC(Cc3ccccc3)CC2)no1 | – | inactive: -7.66%
46 | CN1CCN(c2cc(=O)c3ccnc(-c4ccnn4C)c3o2)CC1 | inconclusive: 6.31 µM [inhibitor, full curve, poor fit] | –
47 | Fc1ccc(-c2ccc3ncc(Nc4ccc(Cl)cn4)n3n2)cc1 | inconclusive: 28.2 µM [inhibitor, single point] | –
48 | O=C(CCn1c(=O)c2cccn2c2cccnc21)NCc1ccccc1Br | inconclusive: 3.98 µM [inhibitor, full curve] | –
49 | O=C(CN1C(=O)NC(c2ccc(Cl)cc2)C2=C1COC2=O)Nc1ccc(F)c(Cl)c1 (configuration not stated) | inconclusive: 31.6 µM [inhibitor, single point] | –
50 | CCC(=O)Nc1ccc(C)cc1-c1nc2ccccc2n(C(C)C(=O)Nc2ccccc2CC)c1=O (configuration not stated) | inconclusive: 39.8 µM [inhibitor, single point] | –
51 | CCCNC(=O)C1CCc2ncc(-c3ccc(OC)cc3)n2C1 (configuration not stated) | inconclusive: 25.1 µM [inhibitor, single point] | –
52 | COc1ccc(CN2CCc3nc(N4CCN(C)CC4)[nH]c(=O)c3CC2)c(OC)c1OC | – | inactive: 4.85%
53 | CCc1ccc(-n2c(SCC(=O)NC(C)CC)nc3n[nH]c(C)c3c2=N)cc1 (configuration not stated) | inconclusive: 39.8 µM [inhibitor, single point] | –
54 | Cc1ccc(C)c(S(=O)(=O)c2nnn3c2nc(NCc2cccs2)c2sccc23)c1 | inconclusive: 39.8 µM [inhibitor, single point] | –
55 | COC(=O)[C@@H]1Cc2c([nH]c3ccccc23)[C@H]2C[C@@H](NC3CC3)C[C@@H](c3ccc(F)cc3)N21 | active: 28.2 µM | –
56 | CCN1c2cc(C(=O)Nc3cccc(OC(F)(F)F)c3)ccc2C(=O)N2CCCCCC21 (configuration not stated) | inconclusive: 22.4 µM [inhibitor, single point] | –
57 | Cc1ncsc1CCCNc1nc(-c2ccccn2)nc2c1CCNCC2 | inconclusive: 12.6 µM [inhibitor, partial curve, poor fit] | –
